Measurements published in PubChem BioAssay AID686979 (National Center for Advancing Translational Sciences (NCATS), 2013).
Out of some 420,000 compounds screened, about 50,000 (12%) were called active. Inconclusive results, whose numbers are uncertain, are shown with a selection of clear calls. Calls follow the shape of the dose curve; as a rule, active = well fitted inhibition curve with a large enough effect; inconclusive = small, poorly fitted or top-dose-only effect; inactive = flat fitted curve, though single readings scatter. Potencies of inconclusive entries are left out as doubtful fits.

assay: qHTS for Inhibitors of human tyrosyl-DNA phosphodiesterase 1 (TDP1): qHTS in cells in presence of CPT; settings: chicken DT40 Tdp1-/-;hTDP1 cells + 20 nM CPT, ATP luminescence, 48 h; series mostly up to 46.2 µM; also: nearly all actives have a fitted effect of over 55% in size
In short: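 Chicken DT40 Tdp1-/- cells complemented with human TDP1, 400 cells/well, exposed to compounds plus 20 nM camptothecin for at least 48 h at 37 C; viability read as ATP content by CellTiter-Glo luminescence.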
Potency is read from the fitted curve at half-maximal effect; tags tell the direction and shape of the fitted curve.

Row | Compound | Potency
1 | Oc1ccccc1C1=Nc2ncnn2C(c2ccc(F)cc2)C1 (stereo not drawn) | inconclusive [inhibitor, partial curve]
2 | Cc1cccc(C)c1OCC(O)Cn1c2ccccc2c2ccccc21 (stereo not drawn) | inconclusive [inhibitor, partial curve]
3 | CC(=O)Nc1cccc(/C(C)=N/NC(=O)c2ccc(O)cc2)c1 | inactive
4 | Cc1ccc(S(=O)(=O)N2CCN(C(=O)COC(=O)Cc3cccc(C(F)(F)F)c3)CC2)c(C)c1 | inactive
5 | O=C(N/C(=C/C=C\c1ccccc1)C(=O)N1CCOCC1)c1ccc(Br)cc1 | inconclusive [inhibitor, partial curve]
6 | CCC1CCCCN1CCCNC(=O)CCC(=O)N1CCOc2ccccc21 (stereo not drawn) | inactive
7 | COC(=O)c1c(C(=O)OC)c(-c2ccc(C)cc2)n2c1CS(=O)(=O)C2 | inactive
8 | COc1ccc(N2CC(NC(=O)C(c3ccccc3)c3ccccc3)CC2=O)cc1OC (stereo not drawn) | inconclusive [inhibitor, partial curve]
9 | S=c1[nH]nc(-c2cc(-c3ccccn3)nc3ccccc23)o1 | inconclusive [inhibitor, partial curve]
10 | CCCN(CC(=O)Nc1ccccc1OC)CC(=O)c1c(N)n(Cc2ccccc2)c(=O)n(C)c1=O | inconclusive [inhibitor, single point]
11 | COc1ccccc1-c1csc(C(O)c2cccc(Cl)c2)n1 (stereo not drawn) | active: 20.6 µM
12 | Cc1ccc(C(=O)NCCc2cc3ccc(C)c(C)c3[nH]c2=O)cc1[N+](=O)[O-] | active: 10.3 µM
13 | O=C(Nn1cnc2ccccc2c1=O)c1ccc(Cl)c([N+](=O)[O-])c1 | inactive
14 | CC(C)Oc1ccc(-c2nc3c(C#N)c[nH]n3c2NC2CCCCC2)cc1 | inconclusive [inhibitor, single point]
15 | CCOC(=O)c1cc(-c2csc(N/N=C/c3ccccc3Cl)n2)on1 | inconclusive [inhibitor, partial curve]
16 | COc1cc(Cl)ccc1OCc1cc(C(=O)N2C[C@@H]3CCC[C@H]2C3)no1 | inconclusive [inhibitor, partial curve]
17 | Cc1ccc(N(C(=O)CCCC(=O)Nc2ccccn2)C(C(=O)NC2CCCC2)c2ccc(O)cc2)cc1C (stereo not drawn) | inconclusive [inhibitor, single point]
18 | CC(=O)Nc1c(C)ccc2nsnc12 | inactive
19 | CCOC(=O)c1[nH]ncc1CN1CCN(Cc2ccccc2)C(CCO)C1 (stereo not drawn) | inactive
20 | O=C(c1ccco1)N1CCC2(CC1)CN(c1cccc(-c3ccccc3)c1)C2 | active: 23.1 µM
21 | Cc1ccccc1Nc1c([N+](=O)[O-])cncc1[N+](=O)[O-] | inconclusive [inhibitor, single point]
22 | COc1ccc(Cn2c(=O)c3cccnc3n(Cc3cccc(F)c3)c2=O)cc1 | inconclusive [inhibitor, single point]

Row | Compound | Potency
23 | O=C(CCCn1c(SCc2cccc([N+](=O)[O-])c2)nc2ccccc2c1=O)NCC1CCCO1 (stereo not drawn) | inconclusive [inhibitor, single point]
24 | Nc1nn(S(=O)(=O)c2ccccc2)cc1-c1ccc([N+](=O)[O-])cc1 | inconclusive [inhibitor, single point]
25 | CCOC(=O)c1c(C)oc2ncnc(Nc3ccc(OC)c(OC)c3)c12 | inconclusive [inhibitor, single point]
26 | COC(=O)c1c(-c2ccc(OC)cc2)oc2ccccc12 | inactive
27 | O=C(Nc1nc2c(s1)CN(Cc1ccccc1)CC2)c1cccc(S(=O)(=O)N2CCc3ccccc32)c1 | inconclusive [inhibitor, partial curve]
28 | COc1ccccc1CNC(=O)c1ccc2nc(CCc3ccccc3)oc2c1 | inconclusive [inhibitor, single point]
29 | CCc1nc2sc(C(C)=O)c(N)c2c2c1CCCC2 | inconclusive [inhibitor, single point]
30 | CCN1C(=O)C2(C(C#N)=C(N)Oc3c2c(C)nn3-c2ccccc2)c2ccccc21 (stereo not drawn) | active: 18.4 µM
31 | COc1cccc(C(=O)/C=C/Nc2ccc(S(=O)(=O)Nc3cnc4ccccc4n3)cc2)c1 | inconclusive [inhibitor, partial curve]
32 | CCN(Cc1ccccc1)C(=O)c1ccc(C(=O)N(CC)Cc2ccccc2)cc1 | inconclusive [inhibitor, single point]
33 | O=C(CNC(c1ccccc1)c1ccccc1)Nc1ccccc1F | inconclusive [inhibitor, partial curve]
34 | CN(C)c1nc2ncn(Cc3ccccc3)c2c(=O)[nH]1 | inactive
35 | c1nc(N2CCN(Cc3ccc4c(c3)OCO4)CC2)c2[nH]cnc2n1 | inconclusive [inhibitor, single point]
36 | COc1ccc2sc(NC(=O)NC(=O)c3c(Cl)cccc3Cl)nc2c1 | inactive
37 | CCOC(=O)C1=C(C)c2ccccc2OC1(CC)C(=O)OCC (stereo not drawn) | inconclusive [inhibitor, single point]
38 | CCOC(=O)c1ccc(N2CCCCC2)c(NS(=O)(=O)c2cccc(C(F)(F)F)c2)c1 | inconclusive [inhibitor, single point]
39 | CCOc1ccc(-c2nc(CN(Cc3ccccc3)C[C@@H]3CCC(=O)N3)c(C)o2)cc1 | inconclusive [inhibitor, single point]
40 | CC(=O)c1c(C)[nH]c2ccc(OCC(O)CNCCc3ccccc3)cc12 (stereo not drawn) | inconclusive [inhibitor, single point]
41 | COCCNc1nc(NCCOc2ccccc2)c2sc(-c3ccccc3)cc2n1 | active: 16.4 µM
42 | CCCCCCN1C[C@H](n2cc(-c3ccc(F)cc3)nn2)[C@@H](O)C[C@@H]1c1ccc(OC)cc1 | inconclusive [inhibitor, single point]
43 | Clc1cccc(Cc2c(-c3ccccc3)nc3ccc(Cl)cn23)c1 | inconclusive [inhibitor, single point]
